# Assay results as given in the supplement of paper PMC3334620.
# Whole data set: some 33,000 sequences, median “E-score (-0.5 to 0.5)” near -0.032, cut for the highest 2% near 0.36. The list shows a part of the results.
# Target: T1, Sko1 (UniProt Q02100)
# T1 sequence: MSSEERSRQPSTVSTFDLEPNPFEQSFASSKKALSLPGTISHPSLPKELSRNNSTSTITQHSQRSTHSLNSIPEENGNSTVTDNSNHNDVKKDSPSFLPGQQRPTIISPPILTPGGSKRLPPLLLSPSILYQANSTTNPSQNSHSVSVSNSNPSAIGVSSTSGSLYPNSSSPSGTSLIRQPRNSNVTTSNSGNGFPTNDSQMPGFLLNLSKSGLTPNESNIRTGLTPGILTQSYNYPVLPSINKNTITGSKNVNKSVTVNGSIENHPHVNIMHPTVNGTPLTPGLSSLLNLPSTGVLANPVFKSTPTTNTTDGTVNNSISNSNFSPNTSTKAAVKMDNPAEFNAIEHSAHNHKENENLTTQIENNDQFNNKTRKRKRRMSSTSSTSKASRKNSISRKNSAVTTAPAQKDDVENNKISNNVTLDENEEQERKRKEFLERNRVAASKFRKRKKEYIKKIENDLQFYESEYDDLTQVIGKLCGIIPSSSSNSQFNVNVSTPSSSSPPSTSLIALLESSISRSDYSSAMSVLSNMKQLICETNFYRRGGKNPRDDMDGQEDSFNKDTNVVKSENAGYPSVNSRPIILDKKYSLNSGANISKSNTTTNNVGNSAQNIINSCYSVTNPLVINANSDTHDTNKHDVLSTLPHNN
# Assay: PBM E-score (8-mer binding enrichment) (E-score (-0.5 to 0.5)); higher = stronger / more preferred TF binding; most listed sequences are background and not binding sites
# Settings: protein concentration: 200 nM; construct: GST-full length
# How it was run: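 Universal all-10-mer Agilent arrays, fresh or stripped once, were converted to double-stranded form by primer extension. GST-tagged yeast transcription factors from PURExpress in vitro transcription/translation, full-length or DNA-binding domain only, were applied at about 100-200 nM and detected with fluorescent anti-GST. After masliner normalisation, the Universal PBM Analysis Suite scored each ungapped eight-base word together with its reverse complement by E-score.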
row,Sequence,PBM E-score
1,GACCGACA,-0.152
2,GCTTTATA,-0.0585
3,AATAGGAC,0.0779
4,AATCGTAC,0.203
5,ATAGTATA,0.0612
6,CAGCGTTC,0.00371
7,AATGTATA,0.171
8,GCATGGAA,-0.12
9,ACTGGACA,-0.208
10,GACCGAGC,-0.34
11,ACTACTCT,0.0546
12,ACGTGACA,0.394
13,AGAAACCT,-0.0985
14,ACACCGAA,0.0601
15,AGCGTCTA,-0.146
16,GTCCGTCA,0.179
17,TACAACTA,-0.0218
18,AGCAGCAC,-0.111
19,ATGAAACA,0.0837
20,CTGTCGTC,0.21
21,AGGGGTCG,-0.175
22,CTGCTGAA,-0.248
23,GACCAGCC,-0.306
24,AACACTAT,0.228
25,AGTGTCAC,-0.00431

row,Sequence,PBM E-score
1,CCGTGCAA,-0.169
2,AGAGTAAG,0.0739
3,GGATGACC,-0.0794
4,TGAGACAA,-0.118
5,AAGGCACT,-0.168
6,ATGCGGTG,-0.226
7,GAACCATA,-0.0436
8,CCTTGAAA,-0.142
9,ATAAGCAA,0.0996
10,TGAGTACA,-0.0184
11,CCCTATGA,0.0198
12,CCATTGCG,0.0331
13,TCATTGGA,0.174
14,CTCATTAA,0.0254
15,TGATGAAA,0.195
16,GCAGGAAA,-0.131
17,CGAAGAAC,0.141
18,AGTCTCTA,-0.00077
19,AATTAGTA,0.249
20,CCGGTAGC,-0.219
21,CTCAGTTA,-0.0515
22,CTCTCTCC,-0.215
23,GTGCGAGA,0.0251
24,CGGTCGAG,-0.316
25,CTCCCTGC,-0.18

row,Sequence,PBM E-score
1,ATTGCACG,0.198
2,ACACCTCG,-0.13
3,GAGGACGA,-0.0525
4,CGCAATAA,0.337
5,ATGTGTGC,-0.0761
6,CTTGCGGA,-0.261
7,TAGTGCAA,0.0883
8,CATAACGA,0.164
9,ATCTAAGA,0.0313
10,ACGTAACA,0.464
11,AAGGGAAC,-0.263
12,ACGGCCGT,-0.216
13,GGACCGAA,-0.0348
14,ATTACAGG,0.0412
15,ATGACAGA,0.169
16,ACATATAA,0.196
17,AACTACGT,0.455
18,GTTAGCCA,-0.0986
19,GGATGCAC,-0.16
20,GCCGGCAC,-0.168
21,AGTTGGTC,-0.146
22,ATTCGAAA,0.123
23,GGGGCCAC,-0.222
24,CAACAGCG,-0.0883
25,AACGCCCT,-0.159

row,Sequence,PBM E-score
1,ACGCTCGG,-0.145
2,CGGAGGAG,-0.408
3,GAGGGACC,-0.276
4,CTTAAGTC,-0.0759
5,CAAATCGC,-0.249
6,AAAACGAT,0.15
7,CAAGGAGA,-0.217
8,ATTATACA,0.211
9,CCGAACCG,-0.331
10,AGCGACAT,0.143
11,GGCGGTGA,-0.0691
12,ACCTTTAC,0.0365
13,ACGGCTAA,-0.0592
14,GCAGTCGA,-0.0701
15,TAACTTAA,0.146
16,CGCGCCCA,-0.16
17,TATCAACA,0.193
18,AACAGTGC,-0.0938
19,CTTAATAA,0.0783
20,GAGACAAA,-0.2
21,GAAATAAC,0.144
22,CACGAGTG,-0.0109
23,ACAGAAAG,0.115
24,AGAGTGTC,0.0578
25,CTCAAAGA,-0.0769

row,Sequence,PBM E-score
1,ATATGCAT,0.0831
2,AGCACATG,0.00826
3,CAGGTCCC,-0.322
4,GTATAGTA,0.0728
5,ATGAAGTA,0.14
6,AGTTCAGC,-0.146
7,CCTCACAA,-0.00715
8,AATCTCGT,0.143
9,TAAAAATA,0.266
10,GAATATAC,0.0665
11,CGATTGGA,-0.0798
12,GTCGTCAA,0.239
13,AACAACAG,0.0377
14,CAAGGACA,-0.0777
15,AATCGACG,0.295
16,ACTATAAA,0.144
17,GGGCACTA,-0.133
18,ATATCTTG,0.1
19,CTGGTAGC,-0.114
20,CATAGTCG,0.167
21,ACCGGACG,0.0453
22,CGTATTGA,0.348
23,AAGAATGC,0.04
24,ACCCTCCG,-0.305
25,AGCGCTTG,-0.226

row,Sequence,PBM E-score
1,GTGGTAAC,0.121
2,ATATGGAA,0.0514
3,CGTCAAAA,0.36
4,GCTGTGAC,0.207
5,ACGACTAC,0.0547
6,ATCCTCCA,-0.0908
7,CTATAGGA,0.0338
8,TCTGTTCA,-0.0585
9,CAACAGTG,-0.0996
10,ACACCCCA,-0.00989
11,CTACTACA,-0.0394
12,CGATTGAG,-0.111
13,ACTATGAG,0.0435
14,GAATTATA,0.163
15,AATGTCGA,0.217
16,GGAAGAAC,0.079
17,AGGAGTCA,-0.0845
18,CGACGACA,0.0871
19,CGTTCGAG,0.189
20,ACCACGGC,-0.135
21,CAATTGTC,-0.0409
22,ACACTACG,0.368
23,GACTTATA,0.197
24,GCATTGTA,0.0473
25,ATCTCGGA,0.0211

row,Sequence,PBM E-score
1,AGTGTCGA,-0.14
2,GGCGACGA,-0.241
3,TTCATAAA,0.0982
4,ACAGGAAC,-0.0349
5,CGGGCTTC,-0.275
6,AAATGCGA,0.0299
7,ACGTGGCA,0.297
8,CCGCCTCG,-0.173
9,AGGTTGTA,0.15
10,ACCCACGG,-0.218
11,ACGATATA,0.237
12,CACAGAAG,-0.148
13,CCTCCAAC,-0.0545
14,TCATCCGA,0.184
15,TAGCAGCA,-0.024
16,CCGACGCG,-0.0999
17,TAATGGGA,-0.0156
18,ATATAAGC,0.0605
19,ACATGCTC,-0.037
20,CCGTGCCA,-0.129
21,GGCAAAAC,-0.0766
22,CACGAAAC,0.184
